Results reported in PubChem BioAssay AID686979 (National Center for Advancing Translational Sciences (NCATS), 2013).
Among all 420,000 compounds or so, about 50,000 (12%) were called active. Inconclusive means that the source gave no clear call. Such entries were picked first, then a sample of the others. The call rests on the fitted dose curve; in most records, active means well fitted inhibition curve with a large enough effect; inconclusive means small, poorly fitted or top-dose-only effect; inactive means flat fitted curve, though single readings scatter. Potencies of inconclusive entries are left out as doubtful fits.

assay: qHTS for Inhibitors of human tyrosyl-DNA phosphodiesterase 1 (TDP1): qHTS in cells in presence of CPT; settings: chicken DT40 Tdp1-/-;hTDP1 cells + 20 nM CPT, ATP luminescence, 48 h; activity change, negative = growth inhibition: at 46.2 µM (top of the series) unless noted; further: nearly all actives have a fitted effect of over 55% in size
How it was run: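 Cell growth measured by CellTiter-Glo luminescence after a minimum 48 h, 37 C compound exposure with 20 nM CPT in Tdp1-knockout DT40 cells stably expressing hTDP1, seeded 400/well; qHTS titration format.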
On the % scale 0 is the no-effect control and ±100 the full control effect; potency means the concentration at half of the fitted maximal effect; tags describe the fitted curve by direction and shape.

| SMILES | Potency | activity change, negative = growth inhibition |
| --- | --- | --- |
| CC(=O)N1c2ccc3ccccc3c2C(C)CC12CCCCC2 (configuration not stated) | inconclusive [inhibitor, single point] | – |
| O=S(=O)(Nc1nc2ccccc2nc1N1CCc2ccccc2C1)c1ccc(Cl)cc1 | inconclusive [inhibitor, single point] | – |
| COc1cccc(Oc2cncnc2-c2ccc(OC)cc2O)c1 | – | inactive: -22.8% |
| Nc1ccc(Oc2ccccc2-c2ccccc2)cc1 | – | inactive: 4.62% |
| O=C(N/N=C/c1ccc(COc2ccc(Br)cc2)o1)c1ccc2c(c1)OCO2 | inconclusive [inhibitor, single point] | – |
| C=CCc1ccc(OCCOCCNCCOC)c(OC)c1 | – | inactive: -5.7% |
| COc1cc(S(=O)(=O)N2CCOCC2)ccc1NC(=O)COC(=O)/C=C/c1cc(OC)c(OC)c(OC)c1 | inconclusive [inhibitor, single point] | – |
| COc1cccc(CNCCO)c1OCc1ccccc1Cl | – | inactive: 4.58% |
| Nc1c(CNCc2nnn(Cc3ccccc3)c2N)nnn1Cc1ccccc1 | inconclusive [inhibitor, single point] | – |
| C=CCN(c1ccccc1)S(=O)(=O)c1cccc(C(=O)N2CCN(c3ncccn3)CC2)c1 | active: 6.51 µM | – |
| Cc1ccc(CN2C(=O)CSCC2(C)C(=O)Nc2c(C)cccc2C)cc1 (configuration not stated) | – | inactive: 12.9% |
| CSCCC(NC(=O)COc1ccccc1)C(=O)N(C)CC(=O)Nc1ccc(C)cc1 (configuration not stated) | inconclusive [inhibitor, single point] | – |
| COc1cccc(C(NC(C)=O)c2nc(-c3cccc(NC(C)=O)c3)cs2)c1 (configuration not stated) | – | inactive: -25.8% |
| CCN(CC)CCSc1nc2c([nH]1)c(=S)n(C)c(=O)n2C | active: 4.11 µM | – |
| CCC1(c2ccc(OC)cc2)NC(=O)N(CC(=O)N2CCc3ccccc32)C1=O (configuration not stated) | inconclusive [inhibitor, single point] | – |
| COc1ccc(Nc2cc(C)c3c(O)cccc3n2)cc1 | active: 20.6 µM | – |
| CC(=O)C1=C(c2ccc(F)cc2)N(C(C)=O)n2c(nnc2C2CCCCC2)S1 | inconclusive [inhibitor, single point] | – |
| CCOc1ccc(C(=O)NCC(c2ccc(Cl)cc2)N2CCCCC2)cc1 (configuration not stated) | active: 7.31 µM | – |
| Cc1ccc(C2CN=NC23CCc2ccccc2C3=O)cc1 (configuration not stated) | active: 25.9 µM | – |
| CC1(C)OC(=O)C2(Cc3cc([N+](=O)[O-])ccc3N3CCCCC32)C(=O)O1 (configuration not stated) | – | inconclusive: -30.1% [inhibitor] |
| COc1ccc2sc(SCCCS(=O)(=O)O)[n+](CCCS(=O)(=O)[O-])c2c1 | inconclusive [inhibitor, single point] | – |
| CC[C@@]1(O)C(=O)OCc2c1cc1n(c2=O)Cc2cc3c([N+](=O)[O-])cccc3nc2-1 | active: 0.0335 µM | – |
| CCOC(=O)CSc1nc2cc(C)ccc2cc1C#N | active: 13 µM | – |
| CS(=O)(=O)c1ccc([C@@H](O)[C@@H](COC(=O)CN)NC(=O)C(Cl)Cl)cc1 | active: 6.68 µM | – |

| SMILES | Potency | activity change, negative = growth inhibition |
| --- | --- | --- |
| C[C@@H]1CN([C@@H](C)CO)C(=O)CCCn2nncc2CO[C@@H]1CN(C)C(=O)OCc1ccccc1 | – | inactive: -7.99% |
| CC(C)Oc1ccc(CCC(=O)NNC(=S)Nc2ccccc2)cc1 | – | inactive: -22.9% |
| CCCCc1nnc(NC(=O)CSCc2cc(=O)n3cc(C)sc3n2)s1 | – | inactive: -4.79% |
| CCOc1ccc(-c2nnc(-c3ccncc3)o2)cc1 | active: 20.6 µM | – |
| COc1cc(C(O)c2nc(-c3ccc(N(C)C)cc3)cs2)ccc1F (configuration not stated) | active: 16.4 µM | – |
| CCC(c1nnnn1Cc1ccccc1)N(Cc1ccccc1)Cc1cc2cc(C)ccc2[nH]c1=O (configuration not stated) | active: 11.2 µM | – |
| Cn1nc(C(C)(C)C)cc1C(=O)Nc1nc2c(s1)C(=O)CC(C)(C)C2 | inconclusive [inhibitor, single point] | – |
| CC(C)(C)C(=O)NC1CC2CCCC(C1)N2C(=O)Nc1ccccc1F (configuration not stated) | – | inactive: 3.31% |
| CCCCN1CC(COCc2ccccc2)Oc2cccc(N3CCCC3)c2S1(=O)=O (configuration not stated) | inconclusive [inhibitor, single point] | – |
| Cc1ccc(-c2nnn(CC(=O)N(Cc3cccs3)C(C(=O)NC3CCCC3)c3ccncc3)n2)cc1 (configuration not stated) | inconclusive [inhibitor, partial curve] | – |
| O=C(Nc1cc(S(=O)(=O)N2CCOCC2)ccc1N1CCOCC1)c1ccccc1[N+](=O)[O-] | – | inactive: 2.5% |
| Cc1cc(=O)oc2cc3oc(=O)cc(C)c3cc12 | – | inactive: 4.13% |
| N=c1n(CCN2CCOCC2)c2ccccc2n1CC(=O)c1ccc(Cl)c(Cl)c1 | inconclusive [inhibitor, single point] | – |
| Cc1cc(C)cc(NC(=O)CSc2cc(C(=O)c3nccn3C)c3ccccc3n2)c1 | inconclusive [inhibitor, partial curve] | – |
| COc1ccc(C(CNC(=O)c2cccc(S(=O)(=O)Nc3ccc(F)cc3)c2)N(C)C)cc1 (configuration not stated) | inconclusive [inhibitor, single point] | – |
| Cc1ccc2c(c1)N(Cc1cccc(C#N)c1)C=NS2(=O)=O | – | inactive: -0.305% |
| O=C(COC(=O)C1(c2ccccc2)CC1)N1CCN(c2ccc(F)cc2)CC1 | inconclusive [inhibitor, single point] | – |
| NC(=O)CC(NC(=O)Cc1cccc2ccccc12)c1ccc(N2CCCCCCC2)c([N+](=O)[O-])c1 (configuration not stated) | inconclusive [inhibitor, single point] | – |
| CCCNC(=O)CSc1c(CCC)cnc2c1c(=O)n(C)c(=O)n2C | – | inactive: -0.25% |
| Cc1ccc(/C=c2\sc3nc(-c4ccccc4Br)nn3c2=O)o1 | inconclusive [inhibitor, single point] | – |
| CCN(C(=O)CSc1nc2ccccc2c(=O)n1Cc1ccc(C)cc1)C1CCS(=O)(=O)C1 (configuration not stated) | inconclusive [inhibitor, single point] | – |
| Cc1nc2ccc(Cl)cc2c(-c2ccccc2)c1C(=O)N(C)C | – | inactive: -18.6% |
| O=C(CCC(=O)N1CCSc2ccccc21)Nc1cccc(F)c1 | – | inconclusive: -29.9% [inhibitor] |
| CCOC(=O)c1cnc(N2CCN(c3cccc(C)c3C)CC2)c2ccccc12 | inconclusive [inhibitor, single point] | – |

| SMILES | Potency | activity change, negative = growth inhibition |
| --- | --- | --- |
| O=S(=O)(c1ccc2nnn(OCc3ccccc3)c2c1)N1CCOCC1 | inconclusive [inhibitor, single point] | – |
| O=C1N[C@@H](c2ccccc2)COC(=O)[C@@H](Cc2ccc(F)cc2)CC/C=C/C[C@H]1CC(=O)N(CCO)Cc1ccccc1 | active: 11.6 µM | – |
| O=C(NCCc1csc(-c2cccnc2)n1)c1ccccc1 | – | inactive: -18.1% |
| O=C(NCc1ccccc1OC(F)(F)F)C1CCC(=O)N(C2CC2)C1 (configuration not stated) | – | inactive: 7.6% |
| COc1ccc(-n2c(/C=C(\C)O)nc(=O)c3c(C)cc(C)nc32)cc1 | inconclusive [inhibitor, single point] | – |
| COc1ccc(C(CNCC(O)COc2c(C)ccc(C)c2C)N(C)C)cc1 (configuration not stated) | active: 25.9 µM | – |
| O=C(Nc1ccc(Cc2ccncc2)cc1)C1CCC(N2C(=O)C3CCCCC3C2=O)CC1 (configuration not stated) | inconclusive [inhibitor, partial curve] | – |
| Cc1ccc(CN2CCCC(CO)(Cc3ccccc3C)C2)s1 (configuration not stated) | inconclusive [inhibitor, partial curve] | – |
| CC(C)(C)OC(=O)[C@H](Cc1ccccc1)NC(=O)c1[nH]cnc1C(=O)Nc1cccc(Cl)c1 | inconclusive [inhibitor, single point] | – |
| CCOCCCNC(=O)N[C@H](C(=O)OC)C(C)CC (some centres not stated) | – | inactive: 1.15% |
| COCCCNC(=O)c1cnn(-c2ncc3c(n2)-c2ccccc2CCC3)c1C | – | inactive: -4.8% [at 9.04 µM] |
| COC(=O)c1cccc(C(=O)N2CCCC(C(=O)c3cccc(OC(C)C)c3)C2)c1 (configuration not stated) | inconclusive [inhibitor, single point] | – |
| CCc1ccc(N(CC(=O)NC2CCCC2)C(=O)CCC(=O)Nc2cc(C)on2)cc1 | inconclusive [inhibitor, single point] | – |
| COc1ccc(N(CC(=O)NC2CCCC2)C(=O)CS(=O)CC(=O)Nc2ccc3c(c2)OCO3)cc1 (configuration not stated) | – | inactive: -3.24% |
| Cc1ccc(NCC(=O)Nc2cccc(S(=O)(=O)N(C)C)c2)c(Cl)c1 | inconclusive [inhibitor, single point] | – |
| Clc1ccc(-c2nnc(NCc3ccccc3)c3ccccc23)cc1 | inconclusive [inhibitor, single point] | – |
| COc1ccc(CN2C(=O)C(C)N(C(=O)c3c(F)cccc3F)c3ccccc32)cc1 (configuration not stated) | active: 13 µM | – |
| CCCN(CC(=O)Nc1ccc(F)c(F)c1F)C(=O)C1=COCCO1 | – | inactive: -12.8% |
| CCn1nccc1C(=O)Nc1nc2ccccc2n1CCN1CCCCC1 | active: 35.5 µM | – |
| CC(=O)c1ccc(F)c(-c2cc(C)cc3c2OC(CNC(=O)Cn2nc(C)nc2C)C3)c1 (configuration not stated) | – | inactive: -8.02% [at 9.04 µM] |
| COc1ccc(C(=O)N2CCNC(=O)C2CC(=O)Nc2ccc(C)c(C)c2)cc1 (configuration not stated) | inconclusive [inhibitor, single point] | – |
| CCOC(=O)Nc1ccc2c(c1)N(C(=O)CNC)c1ccccc1CC2 | inconclusive [inhibitor, partial curve] | – |
| O=C(Nc1ccc(Oc2cccnc2)nc1)c1ccc(C(F)(F)F)cc1 | inconclusive [inhibitor, partial curve, poor fit] | – |
| CCOc1ccccc1N(C(=O)c1snc(C(N)=O)c1N)C(C(=O)NCCC(C)C)c1ccco1 (configuration not stated) | inconclusive [inhibitor, single point] | – |
